{"source": "PubChem BioAssay AID1508623", "about": "(National Center for Advancing Translational Sciences (NCATS), 2021)", "note": "Among all 48,000 compounds or so, about 450 (0.94%) were called active. Roughly 19% stayed inconclusive and do not appear here. Calls follow the shape of the dose curve; as a rule, active = well fitted inhibition curve with a large enough effect; inconclusive = small, poorly fitted or top-dose-only effect; inactive = no such curve, though single readings can be large or run the other way. The list shows a part of the results. Potency is read from the fitted curve at half-maximal effect."}
{"assay": "Primary qHTS for Identification of Small Molecule Inhibitors of Huntingtin Promoter Activity; also: nearly all actives have a fitted effect of over 50% in size", "conditions": "HEK293 HTT promoter firefly luciferase reporter (activity 0% = vehicle and -100% = no light), 24 h; series mostly up to 57.5 µM; activity change, negative = inhibition: at the top concentration", "in_short": "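Luminescence was read after Dual-Glo reagent and a 10 min room-temperature incubation. Values were normalized to vehicle (0% activity) and zero RLU (-100% activity). Reporter HEK293 cells had been exposed to compounds (up to 57.5 uM final) for 24 h.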"}
{"compound": "COc1ccc(-c2onc(C)c2C)cc1S(=O)(=O)NCc1ccco1", "activity change, negative = inhibition": "inactive: -15.9%"}
{"compound": "CCc1ccc(CNC(=O)c2ccc3c(c2)nc2n3CCC(C)C2)cc1", "note": "(stereo unspecified)", "activity change, negative = inhibition": "inactive: -1.71%"}
{"compound": "COc1cccc(C(=O)Nc2cccc(OCc3cc(=O)n4cc(C)ccc4n3)c2)c1", "activity change, negative = inhibition": "inactive: 2.65%"}
{"compound": "CCCCc1nn2c(=O)cc(COC(=O)COc3ccc(C)cc3)nc2s1", "activity change, negative = inhibition": "inactive: -4.1%"}
{"compound": "COc1ccc(C)cc1NC(=O)CN(c1ccccc1)S(=O)(=O)N(C)C", "activity change, negative = inhibition": "inactive: -5.05%"}
{"compound": "COc1ccc(NC(=O)CN2C(=O)COc3ccc(S(=O)(=O)Nc4ccccc4)cc32)cc1", "activity change, negative = inhibition": "inactive: -5.75%"}
{"compound": "CCOC(=O)CN1C(=O)c2ccccc2Sc2ncccc21", "activity change, negative = inhibition": "inactive: -18.9%"}
{"compound": "CCC12CN3CC(C)(CN(C1)C3c1c[nH]c3ccccc13)C2=O", "note": "(stereo unspecified)", "activity change, negative = inhibition": "inactive: -16%"}
{"compound": "CC1=C(C(=O)Nc2ccc(C)cc2C)C(c2ccc(O)cc2)n2nnnc2N1", "note": "(stereo unspecified)", "activity change, negative = inhibition": "inactive: -12.4%"}
{"compound": "COc1ccc(/C=C\\c2onc(C)c2S(=O)(=O)N2CCC(C(=O)Nc3ccc(C)cc3C)CC2)cc1", "activity change, negative = inhibition": "inactive: -16.9%"}
{"compound": "O=C(Nc1ccc(F)cc1Cl)n1ncc2cc(Cl)ccc21", "activity change, negative = inhibition": "inactive: 0.476%"}
{"compound": "CCC(=O)N1CCc2cc(S(=O)(=O)NC(CC(C)C)C(=O)Nc3cc(C)ccc3OC)ccc21", "note": "(stereo unspecified)", "activity change, negative = inhibition": "inactive: -16.7%"}
{"compound": "CCCOc1ccc(C(=O)Nc2cccc(NC(=O)c3cccc(Cl)c3)c2)cc1", "activity change, negative = inhibition": "inactive: -1.82% [at 11.5 µM]"}
{"compound": "CCS(=O)(=O)c1ncc(N(Cc2ccco2)Cc2sccc2C)c(C(=O)Nc2ccc(C)cc2C)n1", "activity change, negative = inhibition": "inactive: -13.9%"}
{"compound": "O=C(COc1ccccc1-c1nnc(-c2ccccc2)o1)Nc1ccc(Br)cc1F", "activity change, negative = inhibition": "inactive: -13.6%"}
{"compound": "CCCNC(=O)CCNS(=O)(=O)c1ccc2c(c1)c(=O)n(C)c(=O)n2C", "activity change, negative = inhibition": "inactive: -10.4%"}
{"compound": "CCC(=O)N1CCc2cc(S(=O)(=O)NCCC(=O)Nc3ccc(C)cc3)ccc21", "activity change, negative = inhibition": "inactive: -19.5%"}
{"compound": "Cc1cccc(NCc2nc3ccccc3n2CCOc2ccccc2C)c1", "activity change, negative = inhibition": "inactive: -27.3%"}
{"compound": "COc1cc(C(=O)n2nc(-c3ccco3)nc2NCc2ccc(Cl)cc2)cc(OC)c1OC", "activity change, negative = inhibition": "inactive: 25.7%"}
{"compound": "COc1ccc(C(=O)NCC(c2ccc(N(C)C)cc2)N2CCCC2)c(OC)c1", "note": "(stereo unspecified)", "activity change, negative = inhibition": "inactive: 4.05%"}
{"compound": "Cc1cccc(-c2nc(CSc3nncn4c3cc3oc(C)cc34)c(C)o2)c1", "activity change, negative = inhibition": "inactive: -4.55%"}
{"compound": "COc1ccccc1OCC(=O)Nc1nc2c(s1)CC(C)CC2", "note": "(stereo unspecified)", "activity change, negative = inhibition": "inactive: -23.1%"}
{"compound": "Cc1ccc2nc(-c3ccc(Cl)cc3)cc(C(=O)OCC(=O)c3ccccc3)c2c1", "activity change, negative = inhibition": "inactive: -13.9%"}
{"compound": "CC1CCC(NC(=O)C2(C)Cc3ccccc3C(=O)N2Cc2ccc(F)cc2)CC1", "note": "(stereo unspecified)", "activity change, negative = inhibition": "inactive: -25.7%"}
{"compound": "CCC(Cn1nnc2ccccc2c1=O)NC(=O)Nc1ccc(C)cc1C", "note": "(stereo unspecified)", "activity change, negative = inhibition": "inactive: -13.8%"}
{"compound": "CCOc1ccccc1C(=O)NCc1ccc2c(c1)CCN2C(C)=O", "activity change, negative = inhibition": "inactive: -18.7%"}
{"compound": "Cc1ccc(S(=O)(=O)Nc2cccc(-c3ccc(N4CCCCC4)nn3)c2)s1", "activity change, negative = inhibition": "inactive: 4.73%"}
{"compound": "Cc1cccc(NC(=O)C2CCCN(S(=O)(=O)c3cccc4nonc34)C2)c1", "note": "(stereo unspecified)", "activity change, negative = inhibition": "inactive: -3.6%"}
{"compound": "CCOC(=O)C(C)Sc1nnc2ccc3ccccc3n12", "note": "(stereo unspecified)", "activity change, negative = inhibition": "inactive: 31.3%"}
{"compound": "Cc1ccc(NC(=O)C(=O)NCc2ccc(Cl)cc2)cc1", "activity change, negative = inhibition": "inactive: -17.3% [at 11.5 µM]"}
{"compound": "COc1cc(OC)c(NC(=O)CCn2cnc3onc(-c4ccc(F)cc4)c3c2=O)cc1Cl", "activity change, negative = inhibition": "inactive: 0.41%"}
{"compound": "CCOc1ccc(NC(=O)N(Cc2c[nH]c3ccccc23)C2CCCCC2)cc1", "activity change, negative = inhibition": "inactive: 33.1%"}
{"compound": "Cc1oc(-c2cccc(Cl)c2)nc1CN1CCC(C(=O)NCCCN2CCN(c3cccc(Cl)c3)CC2)CC1", "activity change, negative = inhibition": "inactive: -11.6%"}
{"compound": "Cc1ccc(CNCc2c(C(=O)O)n(Cc3ccccc3C)c3cc(C)ccc23)cc1", "activity change, negative = inhibition": "inactive: -2.88%"}
{"compound": "CCC[C@@H]1C[C@@H](C(=O)N[C@@H]([C@H]2O[C@H](SC)[C@H](O)[C@@H](O)[C@H]2O)[C@@H](C)O)N(C)C1", "activity change, negative = inhibition": "inactive"}
{"compound": "CCCCNC(=O)c1[nH]c2ccccc2c1Sc1ccc(C)cc1", "activity change, negative = inhibition": "inactive: -17.1%"}
{"compound": "Cc1cc2c(=O)c(C(=O)c3ccncc3)cn(CC(=O)Nc3cccc(C)c3C)c2cc1C", "activity change, negative = inhibition": "inactive: -17.3%"}
{"compound": "CC(NC(=O)CN(C)S(=O)(=O)c1ccc2c(c1)c(=O)n(C)c(=O)n2C)c1ccccc1", "note": "(stereo unspecified)", "activity change, negative = inhibition": "inactive: -7.03%"}
{"compound": "Cc1oc(-c2ccc(C(=O)NCc3ccc(N(C)C)cc3)cc2)nc1COc1ccccc1", "activity change, negative = inhibition": "inactive: -20.4% [at 11.5 µM]"}
{"compound": "Cn1cc(S(=O)(=O)N2CCCCC2)cc1C(=O)N1CCN(c2ccc(F)cc2)CC1", "activity change, negative = inhibition": "inactive: -15.8%"}
{"compound": "Cc1cc(=O)n(CC(=O)NCCC(C)C)c2c1c(C)nn2C", "activity change, negative = inhibition": "inactive: -25.9%"}
{"compound": "Cc1ccc2c(c1)c(=O)c(C(=O)c1ccncc1)cn2CC(=O)Nc1c(C)cccc1C", "activity change, negative = inhibition": "inactive: -10.6%"}
{"compound": "Cc1ccc(C)c(S(=O)(=O)c2cnc(SCC(=O)Nc3ccc(F)cc3F)[nH]c2=O)c1", "activity change, negative = inhibition": "inactive: -1.38%"}
{"compound": "CCc1ccc(NC(=O)CSc2nccn2C2CCCC2)cc1", "activity change, negative = inhibition": "inactive: -14%"}
{"compound": "CCN(CC)CCNC(=O)C1CCCN(c2ncnc3onc(C)c23)C1", "note": "(stereo unspecified)", "activity change, negative = inhibition": "inactive: 0.979%"}
{"compound": "Cc1ccc(C)c(-c2csc(-c3c(N)c(C(=O)c4ccc5c(c4)OCO5)n4ccccc34)n2)c1", "activity change, negative = inhibition": "inactive: -34.4%"}
{"compound": "COc1ccc(CCNC(=O)Cn2nc(C)n3c(cc4occc43)c2=O)cc1OC", "activity change, negative = inhibition": "inactive: -7.5%"}
{"compound": "CCOC(=O)c1c(S(=O)(=O)N2CCCC(C(=O)N3CCN(c4ccc(F)cc4)CC3)C2)c(C)n(C)c1C", "note": "(stereo unspecified)", "activity change, negative = inhibition": "inactive: -13%"}
{"compound": "COc1ccc(CCNC(=O)Cn2ncc3c(C)n(Cc4ccccc4F)c(C)c3c2=O)cc1OC", "activity change, negative = inhibition": "inactive: -17.1%"}
{"compound": "Cc1ccc2nc(N(Cc3cccnc3)C(=O)C3CCCCC3)sc2c1", "activity change, negative = inhibition": "inactive: -26.9%"}
{"compound": "CCn1cc(C(=O)OCC(=O)Nc2cc(Cl)ccc2OC)c(=O)c2ccc(C)nc21", "activity change, negative = inhibition": "inactive: -7.05%"}
{"compound": "COc1cc(CNCc2c(C(=O)O)c(C)n(Cc3cccc(Cl)c3)c2C)cc(OC)c1OC", "activity change, negative = inhibition": "inactive: 8.91%"}
{"compound": "CCc1ccc2nc(N3CCC(C(=O)O)CC3)sc2c1", "Potency": "active: 10 µM"}
{"compound": "CCSc1nc2n(n1)C(c1ccc(CC)cc1)C(C(=O)Nc1ccccc1OC)=C(C)N2", "note": "(stereo unspecified)", "activity change, negative = inhibition": "inactive: 0%"}
{"compound": "Cc1c(Cl)cccc1-n1c(CCC(=O)O)ccc1-c1cccs1", "activity change, negative = inhibition": "inactive: -8.14%"}
{"compound": "CCc1cccc(NC(=O)CN2C(=O)CCc3cc(S(=O)(=O)N4CCOCC4)ccc32)c1", "activity change, negative = inhibition": "inactive: -23.4%"}
{"compound": "Cc1ccc2oc(C(=O)Nc3nnc(CC(C)C)s3)cc(=O)c2c1", "activity change, negative = inhibition": "inactive: -0.729% [at 11.5 µM]"}
{"compound": "CN1CCCN=C1/C=C/c1cccs1", "activity change, negative = inhibition": "inactive: -4.63%"}
{"compound": "CCN(CC)c1cc(C)nc2nc(-c3ccc(C)cc3)nn12", "activity change, negative = inhibition": "inactive: -5.33%"}
{"compound": "Cc1ccc(CN2CCSc3ccc(C(=O)Nc4ccc(F)cc4F)cc32)cc1", "activity change, negative = inhibition": "inactive: 10.1%"}
{"compound": "CC12CC3CC(C)(C1)CC(N)(C3)C2", "activity change, negative = inhibition": "inactive"}
